The subject of the data set is ATP. The data set is described as follows: switch fluorescence ratio, 500 uM ATP over buffer (Cy3 cluster intensity, sum of 5 cycles each) (fold (ratio)); higher = stronger signal-on switching upon ATP binding; sequences stand for … in TCGTCGGCAGCGTCAGATGTGTATAAGAGACAGTTTTTTTTTTTTTTTTTTTTTTTTT…TC. The following applies: aptamer strand: ATP DNA aptamer (quencher-CACCTGGGGGAGTATTGCGGAGGAAGG + anchor), 100 nM annealed; ATP concentration: 500 uM; one replicate. In outline:
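Clusters carrying Cy3-labelled switching strands on a modified Illumina MiSeq flow-cell were annealed to 100 nM quencher-labelled ATP aptamer and imaged in selection buffer. They were imaged again after 15 min with 500 uM ATP at 22 °C, over five buffer/ATP cycles with NaOH stripping and re-annealing in between. For each cluster, the fluorescence ratio is the summed Cy3 intensity of the target cycles divided by that of the buffer cycles, averaged per switch-domain sequence. Clusters outside 100-1000 RFU were left out.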

Values marked as one replicate rest on one cluster of the flow cell; about a third of the high ones do not repeat.

We go through 120 sequences from the supplement of paper PMC10126150.
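Note: ATP exposure 15 min at 22 °C before imaging.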

Consider TTGGGTACAA, for which the switch fluorescence ratio came out at 1.02.

With CCGGCCCCAT, the switch fluorescence ratio came out at 1.39.

Take CGGCGCGGCT: the switch fluorescence ratio stood at 0.998.

Turning to TATAGATGTA, the switch fluorescence ratio is 1.01.

Regarding TTTCCTAAAG, the switch fluorescence ratio came to 1.02.

Turning to TGAATCGAAG, the switch fluorescence ratio was 0.959.

CAGGTGTCAA: the switch fluorescence ratio came to 1.1.

As to CAAACAGCGT, the switch fluorescence ratio was 0.99.

Consider ACGGTTAGAT, for which the switch fluorescence ratio was 1.04.

Turning to AGGCGCCTTC, the switch fluorescence ratio was 1.01.

Consider TAGGCGCACT, for which the switch fluorescence ratio was determined as 1.03.

In the case of TGGGAGAACG, the switch fluorescence ratio stood at 0.972.

As to CTAACCGAGG, the switch fluorescence ratio amounted to 1.01.

Turning to GGAGATGGGT, the switch fluorescence ratio was found to be 0.997.

As to GACTTCATTT, the switch fluorescence ratio amounted to 0.954.

Regarding TTTCGGAGGT, the switch fluorescence ratio was determined as 1.03.

Turning to CAAACTGTTA, the switch fluorescence ratio was 1.04.

For the sequence TGTGTTCATT, the switch fluorescence ratio came to 1.03.

As to TTAGGTTGCG, the switch fluorescence ratio worked out at 1.04.

For CAATGTTTGT, the switch fluorescence ratio was determined as 0.983.

CCGGAGTCGT: the switch fluorescence ratio worked out at 2.11.

As to CACTCGAAGT, the switch fluorescence ratio was 1.01.

In the case of GTGTTGGACT, the switch fluorescence ratio was determined as 0.953.

Consider GTGTAGCATG, for which the switch fluorescence ratio is 1.05.

On to TTAATCGCAC, for which the switch fluorescence ratio worked out at 0.99.

As for AGGGTGGCTG, the switch fluorescence ratio turned out to be 0.906.

Take GGGCGGATGC: the switch fluorescence ratio amounted to 0.959.

For CGGGCTCAAT, the switch fluorescence ratio turned out to be 1.03.

Turning to TATGCAAAGC, the switch fluorescence ratio was 0.994.

As for CTGGTTGCGC, the switch fluorescence ratio is 1.05.

In the case of TTTGCGATTA, the switch fluorescence ratio stood at 0.957.

On to TCTAGCTACT, for which the switch fluorescence ratio was determined as 1.13.

For GCTTTACTCG, the switch fluorescence ratio was determined as 1.3.

As to GTTCGTTTCC, the switch fluorescence ratio worked out at 1.01.

As for ATGTCATAAT, the switch fluorescence ratio is 0.98.

Regarding GGTGGAGGG, the switch fluorescence ratio was found to be 1.01.

Consider GACTTATTGT, for which the switch fluorescence ratio was found to be 0.988.

In the case of CGGAGATCTA, the switch fluorescence ratio is 0.998.

As to ATACGTGACC, the switch fluorescence ratio amounted to 1.43.

Turning to CATGCGGTCG, the switch fluorescence ratio is 0.991.

Take GGGCCTGACC: the switch fluorescence ratio came to 0.992.

Turning to ACGGCAGAGC, the switch fluorescence ratio worked out at 0.999.

For the sequence CACTCCATTC, the switch fluorescence ratio is 1.12.

Regarding TAAATTTGGA, the switch fluorescence ratio turned out to be 0.994.

Take GCCTTGGTTG: the switch fluorescence ratio is 1.02.

AATTTGCGTG: the switch fluorescence ratio came out at 0.965.

TGAGAGTTG: the switch fluorescence ratio is 0.99.

In the case of AAGCGGAAAC, the switch fluorescence ratio was 1.14.

On to GTCGCTTACA, for which the switch fluorescence ratio came to 0.995.

As for AGCTCTTGTG, the switch fluorescence ratio amounted to 0.99.

Regarding TTATGCGCAT, the switch fluorescence ratio came out at 1.03.

Regarding AGGGGGCAG, the switch fluorescence ratio was found to be 1.01.

In the case of GGGGTTGACT, the switch fluorescence ratio was 0.979.

CCTTGTGGCG: the switch fluorescence ratio was 1.01.

With CAGTGAAGCA, the switch fluorescence ratio came to 1.04.

Take TGCGACGGCG: the switch fluorescence ratio was 1.01.

Turning to TAGATGGTCA, the switch fluorescence ratio was 1.04.

For the sequence TTTCTGAAG, the switch fluorescence ratio stood at 1.04.

CCGTCGTGCG: the switch fluorescence ratio came to 1.

With ATTAATGATG, the switch fluorescence ratio came to 1.02.

As to CGTTTTCGTT, the switch fluorescence ratio came to 1.04.

For the sequence GCTAAAAATA, the switch fluorescence ratio came out at 0.995.

Take CAATGTGGAT: the switch fluorescence ratio was 0.995.

With GTTAAGTGGG, the switch fluorescence ratio stood at 0.983.

On to ATTTCGCTCG, for which the switch fluorescence ratio was 0.986.

Consider GAGGGAGTAA, for which the switch fluorescence ratio was found to be 1.11.

Consider ATAACTGTCT, for which the switch fluorescence ratio stood at 0.99.

GCTGAAGTTA: the switch fluorescence ratio stood at 1.03.

Regarding TCATATAAGT, the switch fluorescence ratio was 0.991.

As to ATAAGTTCGC, the switch fluorescence ratio was 0.968.

Take AGTCAGCAA: the switch fluorescence ratio was 4.79.

Consider TGATGCGGG, for which the switch fluorescence ratio came out at 0.967.

GGTGAGGAAC: the switch fluorescence ratio amounted to 0.997.

In the case of CAGTCACTTC, the switch fluorescence ratio turned out to be 1.01.

Turning to ATTAACTATT, the switch fluorescence ratio worked out at 1.03.

With GAAAAAGGT, the switch fluorescence ratio turned out to be 0.98.

GTGCAGTCA: the switch fluorescence ratio was determined as 1.02.

CGCACCGTCA: the switch fluorescence ratio was found to be 1.04.

Consider TTGTACTCAC, for which the switch fluorescence ratio turned out to be 1.19.

On to CTCGCTTGTT, for which the switch fluorescence ratio came to 0.981.

Consider GATAAAGTTT, for which the switch fluorescence ratio amounted to 0.978.

AACGGATTGC: the switch fluorescence ratio was found to be 1.04.

With AGGGTGGGTC, the switch fluorescence ratio is 0.971.

Turning to GAGAATTTAC, the switch fluorescence ratio amounted to 1.03.

Turning to CTGATTGCGC, the switch fluorescence ratio turned out to be 1.07.

On to GGACTGGTTT, for which the switch fluorescence ratio came to 0.964.

For CGATTATTGG, the switch fluorescence ratio came out at 1.01.

With GATTCATCTG, the switch fluorescence ratio is 1.04.

On to TACCGGAATT, for which the switch fluorescence ratio is 1.04.

On to CTGGGAATA, for which the switch fluorescence ratio was found to be 1.02.

As to TGGCTAGTCG, the switch fluorescence ratio amounted to 0.971.

In the case of TCTAGCTGAA, the switch fluorescence ratio was found to be 1.01.

CGATGGCTTC: the switch fluorescence ratio was 1.04.

As to TTACGGAACA, the switch fluorescence ratio worked out at 1.29.

With AATGTCGCTT, the switch fluorescence ratio was determined as 1.01.

Take GATACTGCTG: the switch fluorescence ratio was determined as 1.05.

As for AGGGGCGGA, the switch fluorescence ratio stood at 0.994.

Turning to GTTCTGTCC, the switch fluorescence ratio turned out to be 0.988.

Take TACGCAAACC: the switch fluorescence ratio was determined as 3.6.

With GGTCTTGTGT, the switch fluorescence ratio worked out at 0.986.

Take GTTCGAAGGA: the switch fluorescence ratio was determined as 1.

In the case of ACAAATAGAT, the switch fluorescence ratio was found to be 1.03.

In the case of CACGAGGGTC, the switch fluorescence ratio worked out at 0.958.

As to AAAGCCGGGA, the switch fluorescence ratio came out at 1.03.

On to ATTTGCGT, for which the switch fluorescence ratio stood at 0.975.

On to CTAACGCTG, for which the switch fluorescence ratio is 0.907.

Consider TCGTTAATA, for which the switch fluorescence ratio worked out at 1.

With AACAGATA, the switch fluorescence ratio came out at 1.

For CCGGGTGGAA, the switch fluorescence ratio stood at 0.991.

With TTGGAGCCTG, the switch fluorescence ratio was 1.01.

Consider CTAATTCTGA, for which the switch fluorescence ratio came out at 0.972.

For the sequence TGTTTCCGAG, the switch fluorescence ratio came out at 1.09.

On to TTACGGTGCA, for which the switch fluorescence ratio amounted to 1.01.

Regarding AAACATTGGT, the switch fluorescence ratio was 1.05.

For the sequence GGGCCCTGTG, the switch fluorescence ratio turned out to be 1.01.

With CGCACTACGG, the switch fluorescence ratio is 3.64.

With CCACACACGA, the switch fluorescence ratio amounted to 1.5.

As to CGCGCCTTCG, the switch fluorescence ratio was 1.14.

Turning to GTAGAAAATT, the switch fluorescence ratio is 1.

For the sequence GCTTCCATTT, the switch fluorescence ratio amounted to 1.
